PubChem BioAssay AID1963576 (National Center for Advancing Translational Sciences (NCATS), 2024)
The whole screen tested about 46,000 compounds, of which about 60 (0.1%) were called active. About 3% were inconclusive and are not listed. Calls come from the whole dose curve; as a rule, active = well fitted inhibition curve with a large enough effect; inconclusive = small, poorly fitted or top-dose-only effect; inactive = no such curve, though single readings can be large or run the other way. Some of the results follow.

assay: Primary qHTS assay for Inhibitors of ovarian cancer metastasis using an organotypic tumor microenvironment (TME) model.; note: nearly all actives have a fitted effect of over 65% in size;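 for activity change, negative = inhibition: plate controls were DMSO wells for no effect and tomatine positive control wells for full effect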; conditions: SKOV3ip1-GFP adhesion/invasion on 3D omental model, fluorescence; series mostly up to 45.8 µM; activity change, negative = inhibition: at the top concentration
Summary of the method: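 qHTS, 4-pt dose (0.36-46 umol/L); SKOV3ip1-GFP, 1,200 cells/well, no FBS; primary omental fibroblast/mesothelial co-culture 48 h pre-grown; 2 h RT + 16 h 37 C; PBS wash, 4% PFA; GFP count 488/509 nm.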

| SMILES | activity change, negative = inhibition | outcome |
| --- | --- | --- |
| Cn1ccc2c(OCC(=O)NCc3ccccc3)cccc2c1=O | inactive: -0.432% |  |
| COc1ccccc1CNS(=O)(=O)c1ccc(-c2cnc(C3CC3)o2)cc1 |  | inactive |
| CCOC(=O)c1cnc2nc(NCc3cccc(Br)c3)[nH]n2c1=O | inactive: -3.06% |  |
| COc1ccc(CNC(=O)c2ccc3c(c2)N(Cc2ccc(C)cc2)CCS3)cc1 | inactive: -6.47% |  |
| Cc1ccccc1C(=O)Nc1ccc2nc(SCC(=O)N3CCc4ccccc43)sc2c1 |  | inactive |
| CCc1ccccc1NC(=O)Cn1c(=O)n(-c2ccc(CC(=O)NCC3CCCO3)cc2)c(=O)c2ccccc21 (configuration not stated) | inactive: -1.54% |  |
| COc1ccc(CSc2nc3ccncc3n2CC(=O)Nc2ccc(C)c(F)c2)cc1 |  | inactive |
| Cc1ccc(CNC(=O)C2COc3ccccc3C2)cc1 (configuration not stated) | inactive: -0.671% |  |
| COc1ccc2c(c1)Cc1sc(NC(=O)c3cccc(C)c3)nc1-2 | inactive: -10.1% |  |
| Cc1cc(C)cc(NC(=O)C2CCCN2S(=O)(=O)c2ccc3c(c2)CCCC(=O)N3)c1 (configuration not stated) | inactive: -12.3% |  |
| Cc1cc(C)cc(-n2ccn(Cc3ccccc3C)c(=O)c2=O)c1 |  | inactive |
| COc1ccc(CCNC(=O)CCS(=O)(=O)c2cc(Br)cc3c2N(C(C)=O)CC3)cc1OC |  | inactive |
| COc1ccccc1CNC(=O)CC(c1ccc(C)cc1)N1Cc2ccccc2C1=O (configuration not stated) |  | inactive |
| Cc1oc(-c2ccc(C(=O)NCCC(C)C)cc2)nc1CN1CCc2ccccc21 |  | inactive |
| Cc1ccc(OCC(=O)OC2=C(C(=O)c3ccccc3)N(C)S(=O)(=O)c3ccccc32)cc1 | inactive: -4.67% |  |
| CCc1ccc(NS(=O)(=O)c2cc(-c3cnc(C4CC4)o3)ccc2C)cc1 |  | inactive |
| Cc1ccccc1NC(=O)c1sc2nc3n(c(=O)c2c1C)CCC3 | inactive: -6.87% |  |
| COC(=O)CSc1nc2sc3c(c2c(=O)n1-c1ccccc1C)CC(C)(C)OC3 | inactive: 4.51% |  |
| Clc1ccc(-c2nc3c4cnn(-c5ccccc5Br)c4ncn3n2)c(Cl)c1 | inactive: 4.25% |  |
| Cc1ccc(-n2nnc(-c3nc(-c4cccs4)no3)c2N)c(C)c1 | inactive: 14.1% |  |
| O=S(=O)(Nc1cccc(C(F)(F)F)c1)c1ccc(-c2cnc(C3CC3)o2)cc1 | inactive: -25.4% |  |
| CC(C)c1ccc(OCC(=O)Nc2c(C(=O)c3ccc(F)cc3)oc3ccccc23)cc1 |  | inactive |
| COc1ccc(S(=O)(=O)c2c(C(=O)c3ccc(C)c(C)c3)cnc3ccc(F)cc23)cc1 | inactive: -18.3% |  |
| COc1ccccc1NC(=O)CC(c1cc(OC)c(OC)c(OC)c1)N1Cc2ccccc2C1=O (configuration not stated) |  | inactive |
| CCCCCSc1nc2sc3c(c2c(=O)n1-c1ccc(OC)cc1)CCN(C(C)=O)C3 | inactive: -12.7% |  |

| SMILES | activity change, negative = inhibition | outcome |
| --- | --- | --- |
| COc1ccc(S(=O)(=O)NCc2cccn2Cc2cccc(C)c2)cc1 | inactive: -1.96% |  |
| Cc1ccc(Nc2c(-c3ccsc3)nc3c(C)cccn23)cc1 | inactive: -16.4% |  |
| COc1ccccc1CNC(=O)Cn1ncn2c(cc3sccc32)c1=O | inactive: 2.76% |  |
| COc1cc2c(cc1NC(=O)COc1ccc(Cl)cc1Br)oc1ccccc12 | inactive: 0.396% |  |
| Cc1c(C)n(C)c2ccc(C(=O)NCc3cccc(F)c3)cc12 | inactive: -8.28% |  |
| Cc1ccc(-n2nc3c(=O)n(CC(=O)NCC(C)c4ccccc4)nc(C)c3c2C)cc1 (configuration not stated) |  | inactive |
| COc1ccc(Cn2ccc3nc(C)c(C(=O)NCc4cccc(OC)c4)cc3c2=O)cc1 | inactive: 3.9% |  |
| CCc1ccccc1NC(=O)Cn1c2ncccc2c(=O)n1-c1ccccc1 | inactive: -8.36% |  |
| CCOc1ccc(CNC(=O)CCCc2cn(C)c3ccccc23)cc1OC | inactive: 17% |  |
| COC(=O)c1cc2sc(Cl)cc2n1Cc1cc(C)ccc1C | inactive: 1.63% |  |
| Cc1cc(=O)c2cc(C(=O)Nc3ccccc3C)ccc2[nH]1 | inactive: 15.9% |  |
| CCOc1cc2sc(N3CCC(C(=O)Nc4cc(C)cc(C)c4)CC3)nc2cc1Br | inactive: -9.25% |  |
| COc1ccccc1Cn1cc(C(=O)c2ccc(C)cc2)c(=O)c2cc3c(cc21)OCCO3 | inactive: -14.2% |  |
| CCn1cc2c(n1)-c1c(oc(C(=O)Nc3cccc(C(F)(F)F)c3)c1C)CC2 | inactive: -4.53% |  |
| COc1cc(F)c(S(=O)(=O)Nc2c(C)n(C)n(-c3ccccc3)c2=O)cc1OC | inactive: -3.11% |  |
| COC(=O)c1ccc(CSc2nnc3ccc4ccccc4n23)cc1 | inactive: 14.7% |  |
| COc1ccc(C(=O)Nc2ccc(C(=O)OCc3cc(=O)n4nc(C5CC5)sc4n3)cc2)cc1 | inactive: 3.8% |  |
| COc1ccccc1-c1noc(CCCC(=O)Nc2cc(C)ccc2C)n1 | inactive: 49.3% |  |
| COc1ccc(CCNC(=O)CCCCn2c(=O)c3ccccc3n(Cc3ccccc3Cl)c2=O)cc1OC |  | inactive |
| CCCN(Cc1cccs1)C(=O)Nc1cc(OC)ccc1OC | inactive: 2.99% |  |
| Cc1ccc(N(C)C(=O)c2cc(S(=O)(=O)N3CCOCC3)cn2C)cc1 | inactive: 13.9% |  |
| O=C(CN1CCSc2ccccc21)N1CCN(c2ccc(F)cc2)CC1 | inactive: -7.13% |  |
| CCN(CC)C(=O)Nc1ccc2c(c1)N(Cc1ccccc1)C(=O)c1ccccc1S2 | inactive: 17.5% |  |
| CCOC(=O)c1c(C)[nH]c(C)c1S(=O)(=O)NCC(=O)N1CCN(c2ccccc2OC)CC1 | inactive: 15.6% |  |
| COc1ccc(OC)c(S(=O)(=O)NCCc2csc(-c3cccc(F)c3)n2)c1 | inactive: -2% |  |

| SMILES | activity change, negative = inhibition | outcome |
| --- | --- | --- |
| CC(=O)c1ccc(NC(=O)CCOc2ccccc2)cc1 | inactive: -8.93% |  |
| CCOc1ccccc1NC(=O)C(CC)n1c(C(=O)OC)cc2occc21 (configuration not stated) | inactive: -3.5% |  |
| CCc1cccc(C)c1NC(=O)CN1CCCN(Cc2ccccc2Cl)S1(=O)=O | inactive: 3.11% |  |
| Cc1c(C(=O)N2CCCCCC2)c(S(=O)(=O)N(Cc2ccccc2)C(C)(C)C)c(C)n1C | inactive: 13% |  |
| O=S(=O)(c1ccc(-n2cnnn2)cc1)N1CCN(c2cccc(Cl)c2)CC1 |  | inactive |
| CCCCN(CC)CCNC(=O)C1CCCN(S(=O)(=O)c2cccc3nsnc23)C1 (configuration not stated) |  | inactive |
| O=C(Cn1ncc2ccsc2c1=O)N1CCN(c2ccccc2F)CC1 |  | inactive |
| CCCn1c(=NC(=O)c2cc3ccccc3o2)c(C(=O)OCC)cc2c(=O)n3ccccc3nc21 | inactive: 4.7% |  |
| COc1ccc(Nc2oc(/C=C/c3cccc(OC)c3)nc2C#N)cc1 | inactive: 48.4% |  |
| COc1ccc(N(C(=O)/C=C\C(=O)Nc2ccc(C)cc2)C(C(=O)NCc2ccco2)c2ccc(C)cc2)cc1 (configuration not stated) | inactive: -5.35% |  |
| O=c1cc(-c2ccccc2)n2c(SCc3c(F)cccc3Cl)nnc2[nH]1 |  | inactive |
| Cc1ccc(-n2c(=O)c3cccnc3n2CC(=O)Nc2cc(Cl)ccc2C)cc1 |  | inactive |
| CC(C)CC(=O)NC1(C(F)(F)F)C(=O)Nc2c1c(=O)[nH]c(=O)n2-c1ccccc1 (configuration not stated) |  | inactive |
| CCCc1nn2c(=O)cc(COc3ccc(/C=C(\C#N)C(=O)Nc4ccccc4)cc3)nc2s1 | inactive: 2.77% |  |
| COc1ccc(C(CC(=O)NCc2ccccc2Cl)N2Cc3ccccc3C2=O)cc1OC (configuration not stated) | inactive: -2.27% |  |
| Cc1ccc(NC(=O)Cn2c(=O)n(CCCCC(=O)NCc3ccccc3Cl)c(=O)c3ccccc32)cc1 | inactive: -2.77% |  |
| Cc1ccc(C)c(CN2C(=O)c3ccccc3S(=O)c3ccc(C(=O)N4CCN(c5cccc(Cl)c5)CC4)cc32)c1 (configuration not stated) | inactive: 12% |  |
| COc1ccccc1OCC(=O)NCC(c1ccc(Cl)cc1)N1CCOCC1 (configuration not stated) | inactive: 2.41% |  |
| Cc1ccc(NC(=O)CN(C)S(=O)(=O)c2cnc[nH]2)cc1 | inactive: 1.6% |  |
| Cc1ccc(NC(=O)C(=O)NCc2ccco2)cc1 | inactive: -2.43% |  |
| Cc1ccc(Cl)cc1NC(=O)c1oc2ccc(S(=O)(=O)N3CCCCC3)cc2c1C | inactive: 9.43% |  |
| Cc1ccc(NC(=O)C2CCCN(S(=O)(=O)c3cccc4cccnc34)C2)cc1 (configuration not stated) | inactive: -27% |  |
| CCc1ccc(-n2c(=O)c3c4c(sc3n(CC(=O)N3CCC(C)CC3)c2=O)CCC4)cc1 |  | inactive |
| CCc1nonc1NC(=O)c1oc2ccc(Br)cc2c1C |  | inactive |
| Cc1nn(C(C)C(=O)N2CCN(c3ccc(Cl)cc3)CC2)c(=O)c2cc3occc3n12 (configuration not stated) |  | inactive |

| SMILES | activity change, negative = inhibition | outcome |
| --- | --- | --- |
| CC(=O)CSc1nnc2cc(C)c3cc(C)cc(C)c3n12 | inactive: -20.7% |  |
| Cc1ccc(S(=O)(=O)c2cn(Cc3cccc(C)c3)c3cc4c(cc3c2=O)OCO4)cc1 | inactive: -10.2% |  |
| Cc1ccc(Cl)cc1NC(=O)c1oc2ccc(S(=O)(=O)N(C)C3CCCCC3)cc2c1C | inactive: 0.835% |  |
| CCOC(=O)c1ccc(NC(=O)CSc2cc(=O)n(CC)c3ccccc23)cc1 | inactive: -12.7% |  |
| O=C(NCCc1ccc(Cl)cc1)C(=O)NCC(c1ccco1)S(=O)(=O)c1ccc(Cl)cc1 (configuration not stated) | inactive: -6.96% |  |
| CCOc1ccc(CN2C(=O)c3ccccc3Sc3ccc(C(=O)O)cc32)cc1 | inactive: -7.89% |  |
| CCC(CC)C(=O)Nc1nnc(SCc2cc(=O)n3cccc(C)c3n2)s1 | inactive: 3.17% |  |
| COc1cc(NC(=O)CCc2c(C)nc3cc(-c4ccccc4)nn3c2C)cc(OC)c1OC |  | inactive |
| CCOc1ccc(CN(C(=O)c2cc(=O)c3cc(C)cc(C)c3o2)C2CCS(=O)(=O)C2)cc1 (configuration not stated) |  | inactive |
| Cc1ccc2c(c1)c(=O)c(C(=O)c1ccc3c(c1)OCO3)cn2Cc1ccc(Cl)cc1 | inactive: -6.83% |  |
| CN(C(=O)CSc1nnc(-c2ccccc2F)o1)C1CCCCC1 | inactive: 1.97% |  |
| c1coc(-c2nc3n(n2)C2(CCCCC2)[C@@H]2CCCC[C@@H]2N3)c1 | inactive: -1.59% |  |
| CCCN1C(=O)C2(c3ccccc31)c1c(oc3ccc(F)cc3c1=O)C(=O)N2CCCOC(C)C (configuration not stated) |  | inactive |
| Cc1oc2ncnc(N3CCCCC3)c2c1C(=O)N1CCN(c2cccc(Cl)c2)CC1 | inactive: 13.4% |  |
| CN(C)c1ccc(CNC(=O)CCn2cccn2)cc1 | inactive: 4.79% |  |
| CCc1ccc(CN2CCc3nc(N4CCN(CC)CC4)ncc3C2)cc1 | inactive: 0.243% |  |
| CC(C)c1cnc2c(c1SCC(=O)Nc1cccc(F)c1)c(=O)n(C)c(=O)n2C | inactive: -7.59% |  |
| Cc1ccc(Cl)cc1Nc1nn2c(=O)c3ccc(C(=O)N4CCCC(C)C4)cc3nc2s1 (configuration not stated) | inactive: -5.81% |  |
| CCn1cc2nc(SCc3cccc(Cl)c3)n(Cc3ccc(C)cc3)c(=O)c2n1 | inactive: 101% |  |
| O=C(Nc1cccc(F)c1)C1CCN(S(=O)(=O)c2cccc3nsnc23)CC1 | inactive: 1.03% |  |
| COc1ccc(CCNS(=O)(=O)c2cc(-c3cc(C)no3)ccc2C)cc1OC |  | inactive |
| COc1ccc(OC)c(NS(=O)(=O)c2ccc(-c3cc(C)no3)s2)c1 | inactive: -28.5% |  |
